Measured values from US20230279151A1 (Sanofi, published 2023).
Positions count from the first letter of the chain named. Blank lines part the entries; values can stand above or below the binder they belong to.

Legend:
[1] = molecular target: T1, human IL4 (IL004, Millipore) (human, UniProt P05112 25-153); test: SPR, Biacore 3000, antibody captured by anti-human Fc, IL4 as analyte; HEK293-FS expression
T1 construct: Commercial recombinant antigen; also called Antigen IL4
T1 sequence (looked up): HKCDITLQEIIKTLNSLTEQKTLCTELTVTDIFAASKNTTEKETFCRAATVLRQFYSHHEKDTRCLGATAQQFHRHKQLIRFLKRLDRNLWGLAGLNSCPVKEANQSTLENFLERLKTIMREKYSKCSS
Experimental: (§1) Binding of antigens to the antibody constructs was measured using surface plasmon resonance (SPR) with a BlAcore 3000 instrument (GE Healthcare) with HBS-EP buffer (GE Healthcare). As antigens, human IL4 (IL004, Millipore) and human IL13 (IL012, Millipore) were used. The antihuman Fc capture antibody (human antibody capture kit, GE Life Sciences) was immobilized via primary amine groups (11000 RU) on a research grade CM5 chip (GE Life Sciences) using standard procedures. […] The tested antibody constructs were […] and injected at 100 nM concentration for 240 sec with a dissociation time of 300 sec at a flow rate of 30 µL/min. For human IL4 and IL13, a dilution series of 0.1 nM to 3 nM and 0.8 nM to 25 nM, respectively were used. Chip surfaces were regenerated with 2 min injects of the regeneration buffer provided with the capture kit. Sensorgrams were double-referenced with a blank chip surface and HBS-EP buffer blanks. Data analysis was performed using the BIAevaluation software v4.1.
(§2) The binding of the different bispecific Tandem-IgG constructs expressed in HEK293-FS or ExpiCHO cells as well as in vivo processed Tandem-IgG from the co-transfection with Furin variants was measured via surface plasmon resonance (SPR). The binding to the two human antigens IL4 and IL13 were compared to the binding characteristics of the individual monoclonal antibodies. […] In contrast, specific binding to IL13 was only detectable for in vivo processed Tandem-IgGs as well as the Tandem-lgG control comprising two LCs. […] Thus, processing of the linker sequence connecting the VLb (VL against IL13) at the inner position of the Tandem-lgG with the CK domain of the IL4 binding Fab at the outer position is required for a functional IL13 binding site. In vivo processing can thereby be mediated via endogenously expressed proteases or via co-transfected Furin variants.

[2] = molecular target: T1, human IL4 (IL004, Millipore); test: SPR, Biacore 3000, antibody captured by anti-human Fc, IL4 as analyte; second block of the table (presumably ExpiCHO expression)
Experimental: as §1, §2

Kd [1]: 0.901 pM | koff [1]: 0.000379 s⁻¹ | Kd [2]: 1.42 pM | koff [2]: 0.000161 s⁻¹ | kon [2]: 1.13e+08 M⁻¹ s⁻¹
B1: sLC-Tandem-(anti-IL4xanti-IL13)-PCL1-huIgG1 (bispecific antibody)
light: DIQMTQSPASLSVSVGDTITLTCHASQNIDVWLSWFQQKPGNIPKLLIYKASNLHTGVPSRFSGSGSGTGFTLTISSLQPEDIATYYCQQAHSYPFTFGGGTKLEIKRTVAAPSVFIFPPSDEQLKSGTASVVCLLNNFYPREAKVQWKVDNALQSGNSQESVTEQDSKDSTYSLSSTLTLSKADYEKHKVYACEVTHQGLSSPVTKSFNRGECRRKRGGGGSGGGGSGGGGSRRKRDIVLTQSPASLAVSLGQRATISCRASESVDSYGQSYMHWYQQKAGQPPKLLIYLASNLESGVPARFSGSGSRTDFTLTIDPVQAEDAATYYCQQNAEDSRTFGGGTKLEIKRTVAAPSVFIFPPSDEQLKSGTASVVCLLNNFYPREAKVQWKVDNALQSGNSQESVTEQDSKDSTYSLSSTLTLSKADYEKHKVYACEVTHQGLSSPVTKSFNRGEC
heavy: QVQLQQSGPELVKPGASVKISCKASGYSFTSYWIHWIKQRPGQGLEWIGMIDPSDGETRLNQRFQGRATLTVDESTSTAYMQLRSPTSEDSAVYYCTRLKEYGNYDSFYFDVWGAGTLVTVSSASTKGPSVFPLAPSSKSTSGGTAALGCLVKDYFPEPVTVSWNSGALTSGVHTFPAVLQSSGLYSLSSVVTVPSSSLGTQTYICNVNHKPSNTKVDKKVEPKSCDKTHTGGGGSGGGGSGGGGSEVQLKESGPGLVAPGGSLSITCTVSGFSLTDSSINWVRQPPGKGLEWLGMIWGDGRIDYADALKSRLSISKDSSKSQVFLEMTSLRTDDTATYYCARDGYFPYAMDFWGQGTSVTVSS[sequence of human IgG1 constant region not given]
notes: Not processed in vivo without furin co-expression, in either HEK293-FS or ExpiCHO cells, so the single light chain was intact in the assay; also called sLC-PCL1-Tandem-IgG; sLC PCL1 Tandem-IgG

Kd [1]: 2.29 pM | koff [1]: 0.000155 s⁻¹ | kon [1]: 6.75e+07 M⁻¹ s⁻¹ | Kd [2]: 2.75 pM | koff [2]: 0.000149 s⁻¹ | kon [2]: 5.43e+07 M⁻¹ s⁻¹
B2: sLC-Tandem-(anti-IL4xanti-IL13)-ΔPCL1-huIgG1 (bispecific antibody)
light: B1 light with R216Q, K217Q, R235Q, K236Q
heavy: B1 heavy
notes: The recognition site is deleted (RQQR); The construct was not processed, so the single light chain was intact in the assay; also called sLC deltaPCL Tandem-IgG
